# Measurements reported in patent US20240376214A1, “ANTI-C-MET ANTIBODIES AND ANTIBODY-DRUG CONJUGATES” (BYONDIS B.V., priority 2021, published 2024).
# B1: ADC3b: mAb3b site-specifically conjugated (HC 41C) to vc-seco-DUBA, DAR 1.9 (conjugate)
# heavy: QVQLVQSGAEVKKPGASVKVSCKASGYTFTDYYLNWVRQACGQGLEWMGLIFPGNDKTEYSEKFKGRVTLTTDTSISTAYMELSSLTSDDTALYYCSGGDYGGFVYWGQGTLVTVSS[sequence of human IgG1 constant region not given]
# light: DIQMTQSPSSLSASVGDRVTISCGASENIYGALNWYQQQPGKAPKVLIFGATNLADGVPSRFSGSGSGTDFTLTISSLQPEDFATYYCQNVLSSPLTFGQGTKLEIKRTVAAPSVFIFPPSDEQLKSGTASVVCLLNNFYPREAKVQWKVDNALQSGNSQESVTEQDSKDSTYSLSSTLTLSKADYEKHKVYACEVTHQGLSSPVTKSFNRGEC
# Tests used:
# [1] = tested on: human tumor cell lines with high, moderate and low c-Met expression; test: In vitro cytotoxicity (PrestoBlue, CyQUANT), tumor cell lines with varying c-Met expression; type: cell-based; details: 6 days, PrestoBlue and CyQUANT read-outs, FIG. 3
# Protocol: (§1) In a separate experiment, in vitro cytotoxicity of ADC3b was determined in human tumor cell lines with varying levels of c-Met expression. Cells in complete growth medium were plated in 384-well plates (45 μL/well) and incubated at 37° C., 5% CO2 at the following cell densities: 650 MKN-45, 600 EBC-1, 250 PC-3, 400 KP-4, 2000 NCI-H441, 2500 Hep-G2, 4000 A2780, 1500 HCC-1954 and 600 Jurkat NucLight Red cells per well. After an overnight incubation 5 μL of ADC3b was added. Serial dilutions of the ADC were made in culture medium. Cell viability was assessed after 6 days using the fluorescence-based PrestoBlue® Cell Viability Reagent (Invitrogen, Thermo Fisher scientific, USA) and fluorescence-based CyQUANT® Cell Proliferation Assay (Invitrogen, Thermo Fisher scientific, USA) according to the manufacturer's instructions. Percentage survival was calculated by dividing the measured fluorescence for each ADC concentration with the average mean of untreated cells (only growth medium) multiplied with 100.
# [2] = tested on: LXFL1176 large cell carcinoma xenograft; test: Dose-response study, patient-derived lung cancer xenograft LXFL1176; type: in vivo, mice; details: LXFL1176, single injection 0.3, 1, 3 or 10 mg/kg, FIG. 8B
# Protocol: Dose-response studies were performed two patient-derived xenograft models: 1) LXFL1176, a large cell carcinoma derived a lymph node metastasis, and 2) HNXF1905, a primary squamous cell carcinoma from the supraorbital area. The tumor explants were grafted in B6-Ces1ctm1.1Loc.CB17 Prkdc^scid mice using the same protocol as described hereinabove. The MET gene is not amplified in either tumor; immunohistochemical staining confirmed high c-Met expression on the cell surface in the LXFL1176 model, and moderate c-Met expression in the HNXF1905 model.
# The mice were dosed on the day of randomization or on the following day with a single injection of 0.3, 1, 3 or 10 mg/kg ADC3b. A vehicle and non-binding isotype control ADC were included. […] The efficacy of ADC3b in head and neck cancer PDX model HNXF1905 is shown in FIG. 8A, the efficacy in lung cancer PDX model LXFL1176 in FIG. 8B.
# c-Met negative A2780 = test: In vitro cytotoxicity (PrestoBlue, CyQUANT), A2780; type: cell-based, human
# Protocol: as §1
# [3] = tested on: Jurkat NucLight Red cells; test: In vitro cytotoxicity (PrestoBlue, CyQUANT), Jurkat NucLight Red; type: cell-based, human; details: 0 c-Met antigen binding sites per cell
# Protocol: as §1
# [4] = tested on: MAXF574 invasive ductal breast carcinoma xenograft; test: Patient-derived breast cancer xenograft model MAXF574; type: in vivo, mice; details: single injection 3 mg/kg, FIG. 7
# Protocol: The in vivo efficacy of the three humanized anti-c-Met ADCs ADC3a, ADC3b, and ADC3c was evaluated in a patient-derived xenograft model of invasive ductal breast carcinoma, MAXF574 in the B6-Ces1ctm1.1Loc.CB17 Prkdc^scid mouse strain. These mice lack exon 5 of the Ces1c gene leading to the abolishment of the function of the enzyme. The MET gene is not amplified in this tumor; immunohistochemical staining confirmed moderate to high expression of c-Met on the cell surface.
# Tumor fragments were obtained from xenografts in serial passage in nude mice. After removal from the donor mice, tumors were cut into fragments (3-4 mm edge length) and placed in PBS containing 10% penicillin/streptomycin. Recipient animals were anesthetized by inhalation of isoflurane and received unilateral tumor implants subcutaneously in the flank. Tumor growth was monitored twice weekly. Tumor volumes were determined by two-dimensional measurement with a digital caliper. Tumor volumes were calculated according to the formula: tumor volume=(1×w^2)×0.5, where l=length and w=width (in mm) of the tumor. […] The mice were dosed the same day or the following day with a single injection of 3 mg/kg ADC3a, ADC3b, or ADC3c. A vehicle and non-binding control ADC were included.
# [5] = tested on: c-Met-negative Jurkat NucLight Red cells; test: Bystander cytotoxicity, Jurkat NucLight Red co-cultured 1:1 with MKN45; type: cell-based, human; details: 1 μg/mL, 6 days, FIG. 4
# Protocol: Bystander cytotoxicity was determined in c-Met-negative Jurkat NucLight Red cells 1:1 co-cultured with c-Met positive MKN45 cells. 5000 cells/well of each cell type (1:1 ratio) was added in their own culture medium to 96-well plates pre-coated with Poly-L-Omithine (0.1 mg/mL, Sigma). After an overnight incubation at 37° C., 5% CO2, 10 μL of 1 μg/mL ADC3b or non-binding control ADC (rituximab-vc-seco-DUBA) was added. Live cell analysis of the proliferation of co-cultured c-Met negative Jurkat NucLight Red cells was assessed by imaging the plates in the IncuCyte S3 instrument, scanning phase and fluorescence with a 10× objective, 4 images per well, every 6 hours during 6 days.
# [6] = Pharmacokinetics in cynomolgus monkey, single dose; type: in vivo
# Protocol: Pharmacokinetic/pharmacodynamic studies were performed with anti-c-Met ADC ADC3b in tumor-bearing CES1c KO SCID mice. These mice lack exon 5 of the Ces1c gene leading to the abolishment of the function of the enzyme. Further pharmacokinetic data were obtained from a toxicology study with ADC3b in cynomolgus monkey.
# Mice were dosed with ADC3b (0.3, 1, 3 or 10 mg/kg, intravenous (i.v.) bolus injection) and plasma was collected at 1, 48, 168, 336, 504 hours post dosing. Monkeys were dosed with ADC3b (5, 15 or 25 mg/kg, i.v. infusion) and plasma was collected at 1, 6, 24, 48, 96, 192, 360, 504 hours. An LC-MS/MS based assay was used to quantify total antibody, and ligand binding assays were used to quantify conjugated antibody. The conjugated antibody assay captures ADC species that contain at least one linker drug.
# [7] = Conjugated antibody, 5 mg/kg, female
# [8] = Conjugated antibody, 5 mg/kg, male
# [9] = Conjugated antibody, 15 mg/kg, female
# [10] = Conjugated antibody, 15 mg/kg, male
# [11] = Conjugated antibody, 25 mg/kg, female
# [12] = Conjugated antibody, 25 mg/kg, male
# [13] = Total antibody, 5 mg/kg, female
# [14] = Total antibody, 15 mg/kg, female
# [15] = Total antibody, 25 mg/kg, female
molecule,measurement,setting,value
B1,cytotoxicity,[1],induce cytotoxicity
same,anti-tumor activity,[2],dose-dependent anti-tumor activity
same,cytotoxicity,c-Met negative A2780,No cytotoxicity was observed
same,cytotoxicity,[3],No cytotoxicity was observed
same,anti-tumor activity,[4],highest anti-tumor activity
same,bystander killing effect,[5],capable of inducing a bystander killing effect
same,AUClast,[6]; [7],13700 (F) hrs*μg/mL
same,Approximate t1/2,[6]; [7],73.6 (F) hrs
same,Cmax,[6]; [7],155 (F) μg/mL
same,AUClast,[6]; [8],13000 (M)/ hrs*μg/mL
same,Approximate t1/2,[6]; [8],73.7 M/h
same,Cmax,[6]; [8],147 (M)/ μg/mL
same,AUClast,[6]; [9],39200 (F) hrs*μg/mL
same,Approximate t1/2,[6]; [9],125 (F) hrs
same,Cmax,[6]; [9],390 (F) μg/mL
same,AUClast,[6]; [10],43100 (M)/ hrs*μg/mL
same,Approximate t1/2,[6]; [10],143 M/h
same,Cmax,[6]; [10],371 (M)/ μg/mL
same,AUClast,[6]; [11],78900 (F) hrs*μg/mL
same,Approximate t1/2,[6]; [11],172 (F) hrs
same,Cmax,[6]; [11],659 (F) μg/mL
same,AUClast,[6]; [12],77300 (M)/ hrs*μg/mL
same,Approximate t1/2,[6]; [12],152 M/h
same,Cmax,[6]; [12],676 (M)/ μg/mL
same,AUClast,[6]; [13],15000 (F) hrs*μg/mL
same,Approximate t1/2,[6]; [13],79.1 (F) hrs
same,Cmax,[6]; [13],141 (F) μg/mL
same,AUClast,"[6]; Total antibody, 5 mg/kg, male",14600 (M)/ hrs*μg/mL
same,Approximate t1/2,"[6]; Total antibody, 5 mg/kg, male",82.4 M/h
same,Cmax,"[6]; Total antibody, 5 mg/kg, male",134 (M)/ μg/mL
same,AUClast,[6]; [14],47300 (F) hrs*μg/mL
same,Approximate t1/2,[6]; [14],143 (F) hrs
same,Cmax,[6]; [14],373 (F) μg/mL
same,AUClast,"[6]; Total antibody, 15 mg/kg, male",53800 (M)/ hrs*μg/mL
same,Approximate t1/2,"[6]; Total antibody, 15 mg/kg, male",166 M/h
same,Cmax,"[6]; Total antibody, 15 mg/kg, male",372 (M)/ μg/mL
same,AUClast,[6]; [15],84500 (F) hrs*μg/mL
same,Cmax,[6]; [15],554 (F) μg/mL
same,AUClast,"[6]; Total antibody, 25 mg/kg, male",84900 (M)/ hrs*μg/mL
same,Approximate t1/2,"[6]; Total antibody, 25 mg/kg, male",159 M/h
same,Cmax,"[6]; Total antibody, 25 mg/kg, male",586 (M)/ μg/mL
